Patent publication US5721210A, “Cyclic cell adhesion modulation compounds” (priority 1995, dated 1998)
At least one peptide structure holds a part that was inferred or is arguable (an end, a ring closure or a residue). Numbered stars: 1 amine (or outer) side, 2 acyl side, 3 side chain; on linkers, the order of the positions; unused ones are H or OH. Bridge positions count the residues as written; N and C are the ends. Square brackets hold non-standard residues; d marks the D form. Peptide text beside a SMILES is read from it. * marks the point of attachment. Acetyl(1-adamantyl) = O=C(CC12CC3CC(CC(C3)C1)C2)*; Adamantane1carbonyl = O=C(C12CC3CC(CC(C3)C1)C2)*; Fluorene9carbonyl = O=C(C1c2ccccc2-c2ccccc21)*; Phe(4-Cl) = N[C@@H](Cc1ccc(Cl)cc1)C(=O)O; Phe(4-F) = N[C@@H](Cc1ccc(F)cc1)C(=O)O; Thz(5,5-Me2) = CC1(C)SCN[C@@H]1C(=O)O; Fmoc = O=C(OCC1c2ccccc2-c2ccccc21)*; X4 = CC12CC3CC(C1)CC(CC(=O)*)(C3)C2; Hydrocinnamoyl = O=C(CCc1ccccc1)*; X3 = O=C([C@@H]1CCSCN1[*:1])[*:2]; X1 = O=C(CC1(S[*:2])CCCCC1)[*:1]; Pen = CC(C)(S)[C@H](N)C(=O)O; X2 = O=C(C12CC3CC(CC1C3)C2)*; 4Amb = NCc1ccc(C(=O)O)cc1; hCys = N[C@@H](CCS)C(=O)O; Ac6c = NC1(C(=O)O)CCCCC1; Nle = CCCC[C@H](N)C(=O)O; Thz = O=C(O)[C@@H]1CSCN1; Ahx = NCCCCCC(=O)O; Mpa = O=C(O)CCS

System: U937 cells (fibronectin receptor) adhering to fibronectin-coated wells
Conditions: read-out: IC50 μM; U937 cells on fibronectin-coated wells, 60 min at 37° C.; concentration at which adhesion is inhibited to 50% of control

SMILES | IC50 [µM]
CC(C)C[C@@H]1NC(=O)CCSSC[C@@H](C(=O)O)NC(=O)[C@@H]2CCCN2C(=O)[C@H]([C@@H](C)O)NC(=O)[C@H](CC(=O)O)NC(=O)CNC(=O)[C@H](CCCNC(=N)N)NC1=O [Peptide 13, (Mpr*)LRGDTPC*] ([Mpa]LRGDTPC-OH; disulfide 1-8) | 870
N=C(N)NCCC[C@@H]1NC(=O)CC2(CCCCC2)SSC[C@@H](C(=O)O)NC(=O)[C@@H]2CCCN2C(=O)[C@H](CO)NC(=O)[C@H](CC(=O)O)NC(=O)CNC1=O [Peptide 41, (PMP)*-RGDSPC*] (RGDSPC-OH; linker N-6 via X1) | 227
N=C(N)NCCC[C@@H]1NC(=O)CC[C@@H](C(N)=O)NC(=O)[C@@H]2CCCN2C(=O)[C@H](CO)NC(=O)[C@H](CC(=O)O)NC(=O)CNC1=O (relative stereo) [Peptide 46, R*GDSPE*-NH2] (RGDSPE-NH2; lactam N-6) | 91
N=C(N)NCCC[C@H](NC(=O)CCc1ccccc1)C(=O)N[C@H]1CSSC[C@@H](C(=O)O)NC(=O)[C@@H]2CSCN2C(=O)[C@H](CC(=O)O)NC1=O [Peptide 80, (HCA)RC*D-(3-thioPro)C*] (Hydrocinnamoyl-RCD[Thz]C-OH; disulfide 2-5) | 69
N=C(N)NCCC[C@@H]1NC(=O)[C@@H](N)CSSC[C@@H](C(=O)O)NC(=O)C2(CCCCC2)NC(=O)[C@H](CO)NC(=O)[C@H](CC(=O)O)NC(=O)CNC1=O [Peptide 62, C*RGDS(1,1-ACC)C*] (H-CRGDS[Ac6c]C-OH; disulfide 1-7) | 148
CC(C)C[C@@H]1NC(=O)[C@@H](N)CSSC[C@@H](C(=O)O)NC(=O)[C@@H]2CCCN2C(=O)[C@H](CO)NC(=O)[C@H](CC(=O)O)NC(=O)CNC(=O)[C@H](CCCNC(=N)N)NC1=O [Peptide 1, C*LRGDSPC*] (H-CLRGDSPC-OH; disulfide 1-8) | 909
CC12CC3CC(C1)CC(CC(=O)N[C@@H](CCCNC(=N)N)C(=O)N[C@H]1CSSC[C@@H](C(=O)O)NC(=O)[C@@H]4CSCN4C(=O)[C@H](CC(=O)O)NC1=O)(C3)C2 [Peptide 112, (3-Me-Ada)-RC*D-(3-thioPro)C*] (X4-RCD[Thz]C-OH; disulfide 2-5) | 41
N=C(N)NCCC[C@H](NC(=O)OCC1c2ccccc2-c2ccccc21)C(=O)N[C@H]1CCSSCC[C@@H](C(=O)O)NC(=O)[C@@H]2CSCN2C(=O)[C@H](CC(=O)O)NC1=O [Peptide 131, (FMOC)-R(HomoC)*D-(3-thioPro)-HomoC*] (Fmoc-R[hCys]D[Thz][hCys]-OH; disulfide 2-5) | 245
N=C(N)NCCC[C@@H]1NC(=O)CNC(=O)[C@@H](NC(=O)C23CC4CC(CC(C4)C2)C3)CSSC[C@@H](C(=O)O)NC(=O)[C@@H]2CSCN2C(=O)[C@H](CO)NC(=O)[C@H](CC(=O)O)NC(=O)CNC1=O [Peptide 72, (AdaCA)C*GRGDS-(3-thioPro)C*] (Adamantane1carbonyl-CGRGDS[Thz]C-OH; disulfide 1-8) | 161
CC(C)[C@@H]1NC(=O)[C@H](CC(=O)O)NC(=O)CNC(=O)[C@H](CCCNC(=N)N)NC(=O)CNC(=O)[C@@H](N)CSSC[C@@H](C(=O)O)NC(=O)[C@@H]2CCCN2C1=O [Peptide 15, C*GRGDVPC*] (H-CGRGDVPC-OH; disulfide 1-8) | 494
CC(C)[C@H](N)C(=O)N[C@@H](CO)C(=O)N[C@H]1CSSC[C@@H](C(=O)N[C@@H](C)C(N)=O)NC(=O)[C@@H]2CCCN2C(=O)[C@H](CO)NC(=O)[C@H](CC(=O)O)NC(=O)CNC(=O)[C@H](CCCNC(=N)N)NC(=O)CNC1=O [Peptide 25, VSC*GRGDSPC*A-NH2] (H-VSCGRGDSPCA-NH2; disulfide 3-10) | 636
N=C(N)NCCC[C@@H]1NC(=O)[C@@H](N)CSSC[C@@H](C(N)=O)NC(=O)[C@@H]2CCSCN2C(=O)[C@H](Cc2ccc(Cl)cc2)NC(=O)[C@H](CC(=O)O)NC(=O)CNC1=O [Peptide 139, C*RGD-(p-chloro-Phe)(TTC)-C*-NH2] (H-CRGD[Phe(4-Cl)][X3]C-NH2; disulfide 1-7) | 52
N=C(N)NCCC[C@@H]1NC(=O)[C@@H](NC(=O)CNC(=O)CNC(=O)CNC(=O)CC23CC4CC(CC(C4)C2)C3)CSSC[C@@H](C(=O)O)NC(=O)[C@@H]2CCCN2C(=O)[C@H](CO)NC(=O)[C@H](CC(=O)O)NC(=O)CNC1=O [Peptide 37, (Ada)-GGGC*RGDSPC*] ({Acetyl(1-adamantyl)}-GGGCRGDSPC-OH; disulfide 4-10) | 85
CC1(C)SSC[C@H](N)C(=O)N[C@@H](CCCNC(=N)N)C(=O)NCC(=O)N[C@@H](CC(=O)O)C(=O)N[C@@H](Cc2ccc(O)cc2)C(=O)N2CSC[C@H]2C(=O)N[C@@H]1C(N)=O [Peptide 117, C*RGDY-(3-thioPro)-Pen*-NH2] (H-CRGDY[Thz][Pen]-NH2; disulfide 1-7) | 249
N=C(N)NCCC[C@H](NC(=O)C12CC3CC(CC1C3)C2)C(=O)N[C@H]1CSSC[C@@H](C(=O)O)NC(=O)[C@@H]2CSCN2C(=O)[C@H](CC(=O)O)NC1=O [Peptide 109, (NACA)-RC*D-(3-thioPro)C*] (X2-RCD[Thz]C-OH; disulfide 2-5) | 16
CC1(C)SSC(C)(C)[C@@H](C(N)=O)NC(=O)[C@@H]2CSCN2C(=O)[C@H](Cc2ccc(O)cc2)NC(=O)[C@H](CC(=O)O)NC(=O)CNC(=O)[C@H](CCCNC(=N)N)NC(=O)[C@H]1N [Peptide 118, Pen*RGDY-(3-thioPro)-Pen*-NH2] (H-[Pen]RGDY[Thz][Pen]-NH2; disulfide 1-7) | 121

SMILES | IC50 [µM]
N=C(N)NCCC[C@@H]1NC(=O)CCSSC[C@@H](C(=O)O)NC(=O)[C@@H]2CCCN2C(=O)[C@H](CO)NC(=O)[C@H](CC(=O)O)NC(=O)CNC1=O [Peptide 33, (Mpr*)RGDSPC*] ([Mpa]RGDSPC-OH; disulfide 1-7) | 231
N=C(N)NCCC[C@@H]1NC(=O)[C@@H](N)CSSC[C@@H](C(=O)O)NC(=O)[C@@H]2CSCN2C(=O)[C@H](Cc2ccc(F)cc2)NC(=O)[C@H](CC(=O)O)NC(=O)CNC1=O [Peptide 78, C*RGD(p-fluoro-Phe)-(3-thioPro)C*] (H-CRGD[Phe(4-F)][Thz]C-OH; disulfide 1-7) | 22
N=C(N)NCCC[C@H](N)C(=O)N[C@H]1CSSC[C@@H](C(=O)O)NC(=O)[C@@H]2CCCN2C(=O)[C@H](CCC(=O)O)NC1=O [Peptide 106, RC*EPC*] (H-RCEPC-OH; disulfide 2-5) | 23
N=C(N)NCCC[C@@H]1NC(=O)[C@@H](NC(=O)CNC(=O)CC23CC4CC(CC(C4)C2)C3)CSSC[C@@H](C(=O)O)NC(=O)[C@@H]2CCCN2C(=O)[C@H](CO)NC(=O)[C@H](CC(=O)O)NC(=O)CNC1=O [Peptide 39, (Ada)-GC*RGDSPC*] ({Acetyl(1-adamantyl)}-GCRGDSPC-OH; disulfide 2-8) | 58
C[C@@H]1NC(=O)[C@H](CC(=O)O)NC(=O)CNC(=O)[C@H](CCCNC(=N)N)NC(=O)CNC(=O)[C@@H](N)CSSC[C@@H](C(=O)O)NC(=O)[C@@H]2CCCN2C1=O [Peptide 16, C*GRGDAPC*] (H-CGRGDAPC-OH; disulfide 1-8) | 829
N=C(N)NCCC[C@@H]1NC(=O)[C@@H](N)CSSC[C@@H](C(=O)O)NC(=O)[C@H](CO)NC(=O)[C@H](CC(=O)O)NC(=O)CNC1=O [Peptide 9, C*RGDSC*] (H-CRGDSC-OH; disulfide 1-6) | 1100
CC1(C)SCN2C(=O)[C@H](Cc3ccc(Cl)cc3)NC(=O)[C@H](CC(=O)O)NC(=O)CNC(=O)[C@H](CCCNC(=N)N)NC(=O)[C@@H](N)CSSC[C@@H](C(N)=O)NC(=O)[C@@H]21 [Peptide 138, C*RGD-(p-chloro-Phe)(DTC)-C*-NH2] (H-CRGD[Phe(4-Cl)][Thz(5,5-Me2)]C-NH2; disulfide 1-7) | 10
CC(C)C[C@@H]1NC(=O)[C@H](CC(=O)O)NC(=O)CNC(=O)[C@H](CCCNC(=N)N)NC(=O)[C@@H](N)CSSC[C@@H](C(=O)O)NC(=O)[C@@H]2CCCN2C1=O [Peptide 116, C*RGDLPC*] (H-CRGDLPC-OH; disulfide 1-7) | 210
N=C(N)NCCC[C@H](NC(=O)CCCCCNC(=O)[C@@H](N)CCCCN)C(=O)N[C@H]1CSSC[C@@H](C(=O)O)NC(=O)[C@@H]2CSCN2C(=O)[C@H](CC(=O)O)NC1=O [Peptide 130, K(AnC)RC*D-(3-thioPro)C*] (H-K[Ahx]RCD[Thz]C-OH; disulfide 4-7) | 33
CCCC[C@@H]1NC(=O)[C@@H](N)CSSC[C@@H](C(N)=O)NC(=O)[C@@H]2CCCN2C(=O)[C@H](CO)NC(=O)[C@H](CC(=O)O)NC(=O)CNC(=O)[C@H](CCCNC(=N)N)NC1=O [Peptide 6, C*(Nle)RGDSPC*-NH2] (H-C[Nle]RGDSPC-NH2; disulfide 1-8) | 383
CC(C)[C@@H]1NC(=O)[C@H](CC(=O)O)NC(=O)CNC(=O)[C@H](CCCNC(=N)N)NC(=O)[C@@H](NC(=O)CNC(=O)CC23CC4CC(CC(C4)C2)C3)CSSC[C@@H](C(=O)O)NC(=O)[C@@H]2CCCN2C1=O [Peptide 56, (Ada)-GC*RGDVPC*] ({Acetyl(1-adamantyl)}-GCRGDVPC-OH; disulfide 2-8) | 54
N=C(N)NCCC[C@H](NC(=O)C1c2ccccc2-c2ccccc21)C(=O)N[C@H]1CSSC[C@@H](C(=O)O)NC(=O)[C@@H]2CSCN2C(=O)[C@H](CC(=O)O)NC1=O [Peptide 111, (9-FCA)-RC*D-(3-thioPro)C*] (Fluorene9carbonyl-RCD[Thz]C-OH; disulfide 2-5) | 14
N=C(N)NCCC[C@@H]1NC(=O)[C@@H](NC(=O)CNC(=O)CNC(=O)CC23CC4CC(CC(C4)C2)C3)CSSC[C@@H](C(=O)O)NC(=O)[C@@H]2CCCN2C(=O)[C@H](CC(=O)O)NC(=O)CNC1=O [Peptide 66, (Ada)-GGC*RGDPC*] ({Acetyl(1-adamantyl)}-GGCRGDPC-OH; disulfide 3-8) | 69
N=C(N)NCCC[C@H](NC(=O)OCC1c2ccccc2-c2ccccc21)C(=O)N[C@H]1CCSSC[C@@H](C(=O)O)NC(=O)[C@@H]2CSCN2C(=O)[C@H](CC(=O)O)NC1=O [Peptide 114, (FMOC)-R(HomoC)*D-(3-thioPro)C*] (Fmoc-R[hCys]D[Thz]C-OH; disulfide 2-5) | 78
N=C(N)NCCC[C@@H]1NC(=O)[C@@H](NC(=O)c2ccc(CNC(=O)CC34CC5CC(CC(C5)C3)C4)cc2)CSSC[C@@H](C(N)=O)NC(=O)[C@@H]2CSCN2C(=O)[C@H](Cc2ccc(O)cc2)NC(=O)[C@H](CC(=O)O)NC(=O)CNC1=O [Peptide 81, (Ada)-(AMBA)-C*RGDY-(3-thioPro)-C*-NH2] ({Acetyl(1-adamantyl)-4Amb}-CRGDY[Thz]C-NH2; disulfide 1-7) | 179
